{
  "source": "paper PMC11995724",
  "about": "“Antibiotic target discovery by integrated phenotypic and activity-based profiling of electrophilic fragments” (Cell chemical biology, 2025)",
  "note": "Screen size: about 3,200 compounds; about 75 (2%) showed an effect of 50% or more. This is one part of the list.",
  "data": [
    {"system": "T1, S. aureus MSSA476", "T1 construct": "MSSA476", "design": "species or system S. aureus MSSA476 (TSB) or V. cholerae SAD30 (LB); 384-well bacterial growth screen at 25 uM, OD600 relative to DMSO control", "settings": "relative growth, OD600, TSB; 25 µM; inhibitor", "units": {"% of control remaining": "%"}, "values": [
      {"smiles": "N#CC(=Cc1ccc(-c2cccc([N+](=O)[O-])c2)s1)C(=O)NC1CC1", "note": "[9-G18, 2-cyano-N-cyclopropyl-3-[5-(3-nitrophenyl)thiophen-2-yl]prop-2-enamide]", "% of control remaining": 106.367},
      {"smiles": "C=CC(=O)N(C)c1ccc(C#N)c(Cl)c1", "note": "[3-G05, N-(3-chloro-4-cyanophenyl)-N-methylprop-2-enamide]", "% of control remaining": 92.2943},
      {"smiles": "CC1=CSC(=C(C#N)C(=O)NCc2ccco2)N1c1ccccc1", "note": "[8-D13, 2-cyano-N-[(furan-2-yl)methyl]-2-(4-methyl-3-phenyl-2,3-dihydro-1,3-thiazol-2-ylidene)acetamide]", "% of control remaining": 108.216},
      {"smiles": "COc1ccc(C(NC(=O)CCl)C2CC2)cc1", "note": "(stereo not shown) [4-K19, 2-chloro-N-[cyclopropyl(4-methoxyphenyl)methyl]acetamide]", "% of control remaining": 108.242},
      {"smiles": "COc1ccc(Cc2cnc(NC(=O)CCl)s2)cc1", "note": "[4-F17, 2-chloro-N-{5-[(4-methoxyphenyl)methyl]-1,3-thiazol-2-yl}acetamide]", "% of control remaining": 146.737},
      {"smiles": "O=C(CCl)NC(Cc1cccc(O)c1)c1ccccc1", "note": "(stereo not shown) [7-N20, 2-chloro-N-[2-(3-hydroxyphenyl)-1-phenylethyl]acetamide]", "% of control remaining": 100.157},
      {"smiles": "Cc1ccc(NC(=O)C(C#N)=Cc2ccccc2OC(F)F)cc1", "note": "[9-D05, 2-cyano-3-[2-(difluoromethoxy)phenyl]-N-(4-methylphenyl)prop-2-enamide]", "% of control remaining": 90.1873},
      {"smiles": "C=CC(=O)N1CCCC1c1cccc(C)c1", "note": "(stereo not shown) [1-N11, 1-[2-(3-methylphenyl)pyrrolidin-1-yl]prop-2-en-1-one]", "% of control remaining": 92.1319},
      {"smiles": "C=CC(=O)Nc1cc(SCc2ccccc2C)ncn1", "note": "[1-F08, N-(6-{[(2-methylphenyl)methyl]sulfanyl}pyrimidin-4-yl)prop-2-enamide]", "% of control remaining": 91.0769},
      {"smiles": "C=CC(=O)NCc1ccc(C(=O)N2CCCOC(C)(C)C2)cc1", "note": "[3-N06, N-{[4-(2,2-dimethyl-1,4-oxazepane-4-carbonyl)phenyl]methyl}prop-2-enamide]", "% of control remaining": 118.764},
      {"smiles": "CCCc1ccc(-c2csc(NC(=O)CCl)n2)cc1", "note": "[4-C09, 2-chloro-N-[4-(4-propylphenyl)-1,3-thiazol-2-yl]acetamide]", "% of control remaining": 5.717},
      {"smiles": "C=CC(=O)NC(C)c1ccc(Oc2ccccc2)c(F)c1", "note": "(stereo not shown) [2-H13, N-[1-(3-fluoro-4-phenoxyphenyl)ethyl]prop-2-enamide]", "% of control remaining": 111.749},
      {"smiles": "Cc1cc(N2CCCC(NC(=O)C(C)Cl)C2=O)n(C)n1", "note": "(stereo not shown) [7-B13, 2-chloro-N-[1-(1,3-dimethyl-1H-pyrazol-5-yl)-2-oxopiperidin-3-yl]propanamide]", "% of control remaining": 83.8305},
      {"smiles": "O=C1C=CC(=O)N1c1cnccn1", "note": "[10-P07, 1-(pyrazin-2-yl)-2,5-dihydro-1H-pyrrole-2,5-dione]", "% of control remaining": 131.875},
      {"smiles": "C=CC(=O)N1CCC(C(=O)Nc2cc(OCC)ccc2Cl)CC1", "note": "[1-I20, N-(2-chloro-5-ethoxyphenyl)-1-(prop-2-enoyl)piperidine-4-carboxamide]", "% of control remaining": 89.6703},
      {"smiles": "C=CC(=O)N1CCCC(C(=O)O)C1", "note": "(stereo not shown) [1-G12, 1-(prop-2-enoyl)piperidine-3-carboxylic acid]", "% of control remaining": 117.099},
      {"smiles": "C=CC(=O)N(CC(C)(C)C)C1CCN(c2ccc(C#N)cn2)CC1", "note": "[1-N09, N-[1-(5-cyanopyridin-2-yl)piperidin-4-yl]-N-(2,2-dimethylpropyl)prop-2-enamide]", "% of control remaining": 109.011},
      {"smiles": "C=CC(=O)N1CCC(C(=O)Nc2cc(Cl)ccc2SCC)CC1", "note": "[1-E06, N-[5-chloro-2-(ethylsulfanyl)phenyl]-1-(prop-2-enoyl)piperidine-4-carboxamide]", "% of control remaining": 80.1758},
      {"smiles": "N#CC(=Cc1cccs1)C(=O)Nc1ccccc1Cl", "note": "[9-L11, N-(2-chlorophenyl)-2-cyano-3-(thiophen-2-yl)prop-2-enamide]", "% of control remaining": 88.9888},
      {"smiles": "C=CC(=O)NCc1cscn1", "note": "[1-I07, N-[(1,3-thiazol-4-yl)methyl]prop-2-enamide]", "% of control remaining": 101.275},
      {"smiles": "N#CC(=CC=Cc1ccccc1)C(=O)Nc1ccc(F)c(Cl)c1", "note": "[8-O18, N-(3-chloro-4-fluorophenyl)-2-cyano-5-phenylpenta-2,4-dienamide]", "% of control remaining": 107.552},
      {"smiles": "CC(Cl)C(=O)NC1CCc2nc(-c3cc(F)ccc3F)cn2C1", "note": "(stereo not shown) [7-K10, 2-chloro-N-[2-(2,5-difluorophenyl)-5H,6H,7H,8H-imidazo[1,2-a]pyridin-6-yl]propanamide]", "% of control remaining": 101.727},
      {"smiles": "O=C(CCl)C1CCC2(CC1)CC2", "note": "[10-C17, 2-chloro-1-{spiro[2.5]octan-6-yl}ethan-1-one]", "% of control remaining": 123.438},
      {"smiles": "COc1ccc(C2=NN(C(=O)CCl)C(c3ccc(F)cc3)C2)cc1", "note": "(stereo not shown) [4-M20, 2-chloro-1-[5-(4-fluorophenyl)-3-(4-methoxyphenyl)-4,5-dihydro-1H-pyrazol-1-yl]ethan-1-one]", "% of control remaining": 115.102},
      {"smiles": "C=CC(=O)N1CCCC(n2ccnn2)C1", "note": "(stereo not shown) [1-D09, 1-[3-(1H-1,2,3-triazol-1-yl)piperidin-1-yl]prop-2-en-1-one]", "% of control remaining": 95.2967},
      {"smiles": "C=CC(=O)N[C@H](C)c1ccccc1OC(C)C", "note": "[3-N16, N-[(1R)-1-[2-(propan-2-yloxy)phenyl]ethyl]prop-2-enamide]", "% of control remaining": 99.2599},
      {"smiles": "CC(Cl)C(=O)NC(C)c1ncn(C)n1", "note": "(stereo not shown) [6-P13, 2-chloro-N-[1-(1-methyl-1H-1,2,4-triazol-3-yl)ethyl]propanamide]", "% of control remaining": 86.0488},
      {"smiles": "C=CC(=O)N(Cc1cc2cccc(OC)c2o1)[C@@H]1C[C@H]2CC[C@@H]1O2", "note": "(racemic) [1-J13, rac-N-[(7-methoxy-1-benzofuran-2-yl)methyl]-N-[(1R,2S,4S)-7-oxabicyclo[2.2.1]heptan-2-yl]prop-2-enamide]", "% of control remaining": 111.121}
    ]}
  ]
}
